# Measurements as given in the supplement of paper PMC3334620.
# The full ranking holds about 33,000 sequences; the median of “E-score (-0.5 to 0.5)” is about -0.043, and the highest 2% start at about 0.37. Some of the results follow.
# Molecular target: T1, Upc2 (UniProt Q12151)
# T1 sequence: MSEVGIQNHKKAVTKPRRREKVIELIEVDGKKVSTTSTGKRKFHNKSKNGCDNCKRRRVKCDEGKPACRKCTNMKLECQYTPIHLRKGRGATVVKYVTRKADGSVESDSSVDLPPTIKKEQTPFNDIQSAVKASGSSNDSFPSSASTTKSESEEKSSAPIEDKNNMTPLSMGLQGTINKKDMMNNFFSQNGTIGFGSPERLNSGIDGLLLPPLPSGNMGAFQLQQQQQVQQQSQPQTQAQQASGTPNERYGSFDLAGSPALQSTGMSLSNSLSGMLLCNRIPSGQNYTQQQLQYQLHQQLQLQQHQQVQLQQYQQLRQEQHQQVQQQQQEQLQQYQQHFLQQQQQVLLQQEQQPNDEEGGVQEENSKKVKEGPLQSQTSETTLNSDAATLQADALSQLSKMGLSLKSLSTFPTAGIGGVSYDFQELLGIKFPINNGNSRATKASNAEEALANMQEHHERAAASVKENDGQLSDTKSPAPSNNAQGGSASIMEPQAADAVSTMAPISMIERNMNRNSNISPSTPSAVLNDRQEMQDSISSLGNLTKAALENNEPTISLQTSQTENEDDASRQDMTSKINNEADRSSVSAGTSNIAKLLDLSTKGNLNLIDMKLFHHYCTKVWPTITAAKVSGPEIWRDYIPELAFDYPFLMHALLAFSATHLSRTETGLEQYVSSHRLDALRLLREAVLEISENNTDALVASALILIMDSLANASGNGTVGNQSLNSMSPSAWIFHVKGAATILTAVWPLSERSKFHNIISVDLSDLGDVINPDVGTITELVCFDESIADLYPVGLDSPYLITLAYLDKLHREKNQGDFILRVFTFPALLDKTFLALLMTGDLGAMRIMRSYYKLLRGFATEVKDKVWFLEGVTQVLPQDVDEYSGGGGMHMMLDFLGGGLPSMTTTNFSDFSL
# Test: PBM E-score (8-mer binding enrichment) (E-score (-0.5 to 0.5)); higher = stronger / more preferred TF binding; most listed sequences are background and not binding sites
# Details: protein concentration: 200 nM; construct: GST-full length
# Procedure, shortened: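 Universal all-10-mer Agilent arrays, fresh or stripped once, were converted to double-stranded form by primer extension. GST-tagged yeast transcription factors from PURExpress in vitro transcription/translation, full-length or DNA-binding domain only, were applied at about 100-200 nM and detected with fluorescent anti-GST. After masliner normalisation, the Universal PBM Analysis Suite scored each ungapped eight-base word together with its reverse complement by E-score.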
row,Sequence,PBM E-score
1,CTGCGTCA,-0.123
2,AGTTCGTC,0.0871
3,ATTGCCTA,-0.276
4,CGCGTCCC,-0.159
5,ACTGGGCT,-0.206
6,AGTAATTG,0.0525
7,GTTAAGGA,0.0466
8,AGACTGAC,-0.114
9,CTTGCCTA,-0.125
10,AAGAGGGT,-0.118
11,AGTCAATC,0.00281
12,AGTGCCTA,-0.172
13,ACTGCGAG,0.037
14,AATTTGGG,-0.129
15,ATCCCAAT,-0.148
16,AGAGCGCA,-0.173
17,AACTCGAC,-0.00343
18,ACCCGATC,0.0305
19,AAGTGCAG,-0.132
20,CACCTAGG,-0.103
21,CTAGCATC,0.00648
22,ACAACTGT,-0.126
23,CGGGACGC,-0.0333
24,AAGAGCTC,-0.0721
25,ACGTGCAC,0.218

row,Sequence,PBM E-score
1,GCCTGAGC,-0.122
2,ACTACGGG,-0.151
3,GTGGCAAA,-0.134
4,ATGGGGGG,-0.336
5,CTCTCTAA,-0.231
6,ATCTCCTA,-0.333
7,CTGAGCCC,-0.0993
8,ACTACACC,-0.125
9,AGGTCTCC,-0.0721
10,CAATAGAA,-0.241
11,CTTTCGGA,-0.11
12,GAGCATTA,-0.125
13,AGGAACGC,0.114
14,AATTCGGG,0.0687
15,AAAGCCAG,-0.121
16,CTGAGGAA,-0.0683
17,CTGCTATC,-0.0676
18,GGTCTTGA,-0.0576
19,AGGGTTAA,-0.0756
20,ATAGTATC,0.0546
21,AATGGACC,0.0562
22,AGCAAGTA,-0.115
23,ACCTGATG,-0.0631
24,AAAACGCA,0.0539
25,ACATTTGC,0.0199

row,Sequence,PBM E-score
1,ACAGAATG,-0.0244
2,ACAACCCG,0.206
3,GGCCGCTA,-0.0834
4,CTTTGTAC,0.192
5,ATACCCAT,0.0396
6,AACACGTG,-0.0685
7,ACTGCCAG,-0.26
8,GGTCTTAA,0.0873
9,CTAGGCCA,-0.2
10,TCTTGAAA,0.0803
11,CATGACAA,-0.0931
12,GAGAATAC,0.11
13,CCGCATGA,-0.165
14,CCCCGTCC,-0.117
15,AAGCCGCG,-0.0444
16,CAGCCAGG,-0.105
17,ACGCCATA,0.0126
18,CCTCTAGC,-0.25
19,ACACTACT,0.0694
20,CGAATCCC,0.0587
21,AAATTCAA,0.0941
22,CATCCTAA,0.0199
23,TGACTTAA,0.029
24,ACACAAGC,-0.00621
25,CACCATAG,-0.304

row,Sequence,PBM E-score
1,CATAACAC,0.0616
2,CCAACCTA,-0.218
3,GGCCAAAA,-0.0838
4,AGATGCGG,-0.196
5,ACCGTAGA,0.178
6,AACCACCG,-0.0167
7,ACGCGGAA,0.109
8,CTATCGAA,-0.056
9,GTACTTCA,0.169
10,AGCACTCA,-0.0177
11,GACATTTA,-0.123
12,CATCATCA,-0.231
13,AAGGGCGG,-0.201
14,CGTACACG,0.423
15,CATGCAAA,0.151
16,CATCTCAG,-0.122
17,ACGACACC,0.374
18,CAGCTGCG,0.0645
19,ACCCGGTG,-0.0394
20,CAAATGGC,-0.173
21,ACGATGAA,0.312
22,CGTTGGAC,-0.184
23,AAAGAAGA,-0.103
24,ACGGTGGC,0.0835
25,CCGGTATC,-0.105

row,Sequence,PBM E-score
1,AACGCAGG,0.02
2,GACTTGGA,-0.105
3,CGACGAAA,0.23
4,CGGTCTGC,-0.0217
5,AATTCCAT,-0.117
6,ATTGTCCC,-0.263
7,GATAACCC,-0.111
8,AGTTAAAA,0.102
9,GCCCCTAC,-0.096
10,GGATAGCC,0.178
11,ACAAGGTA,0.104
12,CCGAACAC,-0.051
13,GTAGTCAA,0.121
14,CGGGAACC,-0.12
15,AAGTGTTC,0.0334
16,AAGTATGA,0.0389
17,TCGTAAGA,0.399
18,GTGTAACA,-0.158
19,AAGAGAAT,-0.0543
20,ATTGCTAC,0.206
21,CTCTGAGC,-0.0489
22,AAAGGACC,-0.0923
23,AACACTCG,0.208
24,GGTCCACA,-0.166
25,CTGGCCCC,-0.124

row,Sequence,PBM E-score
1,CTACTGGC,-0.171
2,CTCCAGCA,-0.0247
3,ATGACCAA,-0.0518
4,AATAGCGC,-0.0328
5,AAATGAGG,-0.278
6,ATGTCGAC,0.00622
7,GCCTCGCC,-0.0504
8,GTCATGAA,0.00612
9,AATGTGAT,-0.0846
10,CTCGTCCA,-0.0829
11,AAGATCGA,-0.0207
12,AGGGTGTA,0.00084
13,AGGCTACT,-0.128
14,GATTCACC,-0.129
15,GTCGACCA,0.0671
16,AGCGCACC,-0.0506
17,ACGGTCGC,0.131
18,TCGACGCA,-0.0783
19,CATTAAGC,0.0328
20,CTGTCATC,-0.116
21,GTATATAC,0.395
22,AAACTCCG,-0.0818
23,ACCTTTAA,0.123
24,CACTAGCG,-0.212
25,CCAGGGTA,-0.104

row,Sequence,PBM E-score
1,GCGGGCTA,-0.181
2,GATTACTA,0.0816
3,AAACCCCG,-0.0877
4,ACGAGCAT,0.335
5,CCGTACTA,0.282
6,CAAGGTCC,-0.0738
7,AGCTTTCG,0.0143
8,GCACAAGA,-0.0394
9,TCCCGAGA,0.0475
10,GTCACCAC,-0.0561
11,ACCAACGA,0.103
12,CTTTGGAC,-0.107
13,CAAGCCTA,-0.0953
14,ATTCTCGG,0.124
15,ACTAAGAA,-0.0494
16,AGGAACAA,-0.0237
17,TACATTGA,-0.165
18,TATGAGGA,-0.144
19,AGTTCGGC,-0.00631
20,ACGTTACG,0.346
21,TATCCCAA,0.0297
22,ACGACACG,0.295
